Data from publication PMC4911916.
These are yes or no findings as the source states them, for the method shown. Binding seen in cells or lysates may run through a third protein. Some entries that bind do so weakly or less than the wild type.

By UniProt entry, the sequences of proteins in these tests, tags left out. Where a name states a change or a piece, a line headed by the entry shows the natural chain unless it says otherwise.
UniProt Q9UKV8: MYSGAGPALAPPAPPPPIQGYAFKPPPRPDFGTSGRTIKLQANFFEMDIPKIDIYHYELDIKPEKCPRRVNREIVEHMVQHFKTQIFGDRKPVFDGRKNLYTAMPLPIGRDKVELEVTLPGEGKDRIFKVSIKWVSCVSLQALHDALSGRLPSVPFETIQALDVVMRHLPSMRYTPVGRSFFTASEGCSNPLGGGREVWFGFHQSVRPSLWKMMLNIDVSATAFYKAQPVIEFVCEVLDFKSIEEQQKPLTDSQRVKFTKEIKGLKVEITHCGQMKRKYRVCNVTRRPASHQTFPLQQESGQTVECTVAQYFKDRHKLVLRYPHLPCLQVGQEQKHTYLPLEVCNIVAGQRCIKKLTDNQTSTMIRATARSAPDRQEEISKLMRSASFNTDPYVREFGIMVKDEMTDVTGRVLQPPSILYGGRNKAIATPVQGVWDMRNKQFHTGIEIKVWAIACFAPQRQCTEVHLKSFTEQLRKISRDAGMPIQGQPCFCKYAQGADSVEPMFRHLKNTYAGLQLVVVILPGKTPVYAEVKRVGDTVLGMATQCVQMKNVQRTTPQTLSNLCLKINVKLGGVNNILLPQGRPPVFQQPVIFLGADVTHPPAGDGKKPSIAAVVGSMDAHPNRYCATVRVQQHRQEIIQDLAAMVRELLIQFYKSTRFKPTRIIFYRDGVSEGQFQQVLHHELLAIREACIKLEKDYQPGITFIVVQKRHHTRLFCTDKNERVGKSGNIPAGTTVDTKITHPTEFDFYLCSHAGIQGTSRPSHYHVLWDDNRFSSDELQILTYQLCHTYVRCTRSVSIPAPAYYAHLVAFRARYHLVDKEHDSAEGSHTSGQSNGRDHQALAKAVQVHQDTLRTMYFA

Key:
[1] = biological target: endogenous Argonaute 2 (AGO2) (human (endogenous in T47D)) (UniProt Q9UKV8); experiment: co-IP; anti-AGO2 antibody IP from T47D nuclear extract versus IgG control, Western blot of partners; 300 µg protein, 4°C, 6 washes in IP300 buffer (300 mM NaCl, 0.05% NP-40)
[2] = biological target: endogenous Argonaute 2 (AGO2) (human (endogenous in T47D)), Q9UKV8; experiment: co-IP; anti-AGO2 antibody IP from a cytoplasmic sample, Western blot with anti-TRBP antibody (Supplemental Fig. S5); settings: remark: other sources report otherwise

| binding [2] | Binder | binding [1] |
| --- | --- | --- |
| – | PSPC1 (protein, UniProt Q8WXF1 1-523) MMLRGNLKQVRIEKNPARLRALESAVGESEPAAAAAMALALAGEPAPPAPAPPEDHPDEEMGFTIDIKSFLKPGEKTYTQRCRLFVGNLPTDITEEDFKRLFERYGEPSEVFINRDRGFGFIRLESRTLAEIAKAELDGTILKSRPLRIRFATHGAALTVKNLSPVVSNELLEQAFSQFGPVEKAVVVVDDRGRATGKGFVEFAAKPPARKALERCGDGAFLLTTTPRPVIVEPMEQFDDEDGLPEKLMQKTQQYHKEREQPPRFAQPGTFEFEYASRWKALDEMEKQQREQVDRNIREAKEKLEAEMEAARHEHQLMLMRQDLMRRQEELRRLEELRNQELQKRKQIQLRHEEEHRRREEEMIRHREQEELRRQQEGFKPNYMENREQEMRMGDMGPRGAINMGDAFSPAPAGNQGPPPMMGMNMNNRATIPGPPMGPGPAMGPEGAANMGTPMMPDNGAVHNDRFPQGPPSQMGSPMGSRTGSETPQAPMSGVGPVSGGPGGFGRGSQGGNFEGPNKRRRY | no binding |
| binds | TAR RNA binding protein (TRBP), Q15633-1 1-366 (protein) MSEEEQGSGTTTGCGLPSIEQMLAANPGKTPISLLQEYGTRIGKTPVYDLLKAEGQAHQPNFTFRVTVGDTSCTGQGPSKKAAKHKAAEVALKHLKGGSMLEPALEDSSSFSPLDSSLPEDIPVFTAAAAATPVPSVVLTRSPPMELQPPVSPQQSECNPVGALQELVVQKGWRLPEYTVTQESGPAHRKEFTMTCRVERFIEIGSGTSKKLAKRNAAAKMLLRVHTVPLDARDGNEVEPDDDHFSIGVGSRLDGLRNRGPGCTWDSLRNSVGEKILSLRSCSLGSLGALGPACCRVLSELSEEQAFHVSYLDIEELSLSGLCQCLVELSTQPATVCHGSATTREAARGEAARRALQYLKIMAGSK | – |
| – | TAR RNA binding protein (TRBP) (protein, UniProt Q15633-1 1-366) MSEEEQGSGTTTGCGLPSIEQMLAANPGKTPISLLQEYGTRIGKTPVYDLLKAEGQAHQPNFTFRVTVGDTSCTGQGPSKKAAKHKAAEVALKHLKGGSMLEPALEDSSSFSPLDSSLPEDIPVFTAAAAATPVPSVVLTRSPPMELQPPVSPQQSECNPVGALQELVVQKGWRLPEYTVTQESGPAHRKEFTMTCRVERFIEIGSGTSKKLAKRNAAAKMLLRVHTVPLDARDGNEVEPDDDHFSIGVGSRLDGLRNRGPGCTWDSLRNSVGEKILSLRSCSLGSLGALGPACCRVLSELSEEQAFHVSYLDIEELSLSGLCQCLVELSTQPATVCHGSATTREAARGEAARRALQYLKIMAGSK | no binding (condition: in nuclear extract) |
